Tests used:
Assay in all cases: SPR (Biacore 3000), receptor captured on chip, ligand in solution
Activin A = biological target: T1, Activin A (UniProt P08476 311-426)
T1 sequence (looked up): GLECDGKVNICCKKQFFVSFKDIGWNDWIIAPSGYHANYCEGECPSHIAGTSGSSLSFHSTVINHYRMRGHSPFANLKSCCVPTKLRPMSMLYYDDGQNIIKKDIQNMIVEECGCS

Activin B = biological target: T2, Activin B (UniProt P09529 293-407)
T2 sequence (looked up): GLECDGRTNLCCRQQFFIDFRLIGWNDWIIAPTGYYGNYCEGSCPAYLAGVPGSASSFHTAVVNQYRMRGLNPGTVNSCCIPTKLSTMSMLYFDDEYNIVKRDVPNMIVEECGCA

[1] = biological target: T3, growth differentiation factor 11 (GDF11) (UniProt O95390 299-407)
T3 sequence (looked up): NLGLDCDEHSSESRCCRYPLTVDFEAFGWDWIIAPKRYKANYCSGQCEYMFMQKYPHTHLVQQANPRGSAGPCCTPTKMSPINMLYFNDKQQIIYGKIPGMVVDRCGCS

BMP-9 = biological target: T4, BMP-9 (UniProt Q9UK05 320-429)
T4 construct: also called bone morphogenetic protein 9
T4 sequence (looked up): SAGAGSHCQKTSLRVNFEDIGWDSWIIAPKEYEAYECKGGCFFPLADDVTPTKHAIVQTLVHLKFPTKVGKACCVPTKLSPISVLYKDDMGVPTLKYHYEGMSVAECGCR

B1: ActRIIa (SEQ ID NO: 73) (receptor)
chain: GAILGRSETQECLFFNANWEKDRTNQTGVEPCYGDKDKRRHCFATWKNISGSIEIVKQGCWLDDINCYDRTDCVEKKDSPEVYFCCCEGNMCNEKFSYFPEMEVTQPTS
notes: Expressed in HEK293 cells, purified on Protein-A Sepharose, captured on the chip with anti-mouse antibodies; also called Human ActRIIa, extracellular portion; wild-type extracellular ActRIIa; not shown: Carrier and linker
Activin A
  Kd: 1 nM
Activin B
  Kd: 0.373 nM
[1]
  Kd: 0.081 nM
BMP-9
  Kd: 25 nM

From patent US20190282663A1 (KEROS THERAPEUTICS, published 2019)
